# PMC4336329 (PLoS ONE, 2015)
# About 2,200 (0.71%) of roughly 310,000 compounds showed an effect of 50% or more. The effect is printed as a negative number. Some of the results follow.
# Molecular target: human ether-à-go-go-related gene (hERG) potassium channel (human, UniProt Q12809)
# Assay: primary screen, population patch clamp on CHO cells stably expressing hERG
# Sequence of human ether-à-go-go-related gene (hERG) potassium channel (Q12809 whole entry, looked up): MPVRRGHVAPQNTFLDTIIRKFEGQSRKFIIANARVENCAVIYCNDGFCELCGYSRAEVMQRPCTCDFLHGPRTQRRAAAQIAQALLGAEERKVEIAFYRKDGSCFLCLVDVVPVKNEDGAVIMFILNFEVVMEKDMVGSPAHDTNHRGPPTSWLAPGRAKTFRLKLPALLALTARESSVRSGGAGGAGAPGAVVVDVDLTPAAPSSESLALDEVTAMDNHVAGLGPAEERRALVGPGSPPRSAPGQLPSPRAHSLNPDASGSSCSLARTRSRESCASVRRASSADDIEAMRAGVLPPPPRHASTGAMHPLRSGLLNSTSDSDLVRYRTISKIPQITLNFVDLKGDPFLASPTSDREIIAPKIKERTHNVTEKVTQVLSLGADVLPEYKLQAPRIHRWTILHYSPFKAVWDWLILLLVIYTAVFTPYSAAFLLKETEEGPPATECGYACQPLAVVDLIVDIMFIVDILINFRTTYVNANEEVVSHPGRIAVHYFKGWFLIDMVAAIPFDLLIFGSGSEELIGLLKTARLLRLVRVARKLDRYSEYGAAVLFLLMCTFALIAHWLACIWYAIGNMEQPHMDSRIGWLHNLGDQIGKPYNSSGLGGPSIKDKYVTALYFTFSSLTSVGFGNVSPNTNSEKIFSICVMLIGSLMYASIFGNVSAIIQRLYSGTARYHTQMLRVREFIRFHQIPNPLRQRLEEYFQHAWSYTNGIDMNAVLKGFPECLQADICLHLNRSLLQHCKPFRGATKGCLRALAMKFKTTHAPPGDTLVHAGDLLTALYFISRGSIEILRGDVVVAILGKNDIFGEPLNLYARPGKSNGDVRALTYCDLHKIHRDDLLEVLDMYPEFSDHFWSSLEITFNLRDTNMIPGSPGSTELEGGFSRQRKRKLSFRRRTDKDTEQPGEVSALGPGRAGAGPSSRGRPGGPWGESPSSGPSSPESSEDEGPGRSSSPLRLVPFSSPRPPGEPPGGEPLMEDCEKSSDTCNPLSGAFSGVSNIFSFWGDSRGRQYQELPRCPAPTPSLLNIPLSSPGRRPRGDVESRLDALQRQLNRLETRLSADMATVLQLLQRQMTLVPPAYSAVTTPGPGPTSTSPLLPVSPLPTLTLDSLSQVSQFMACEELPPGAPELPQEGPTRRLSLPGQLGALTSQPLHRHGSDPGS
row,Structure (SMILES),"hERG current change (%, negative = inhibition) at 1uM"
1,COc1ccc(CCNC(=O)CSCc2ccc(Cl)cc2)cc1OC,-6.37%
2,CC(C)C(=O)N1CCN(c2ccccc2NC(=S)NC(=O)c2ccco2)CC1,12.7%
3,CCn1c(=O)cc(SCC(=O)N2CCCCC2)c2ccccc21,3.68%
4,CCCCc1ccc(NC(=O)CSc2nc(=O)n(CCN(CC)CC)c3c2CCC3)cc1,-0.0891%
5,Cc1cc(-c2cn3ccccc3n2)c(C)n1-c1ccccc1,4.91%
6,CCOC(=O)C1(CCCc2ccccc2)CCN(S(C)(=O)=O)CC1,5.98%
7,CC(Oc1cc(F)ccc1[N+](=O)[O-])C(=O)N(C)CC(=O)Nc1ccccc1C(F)(F)F (centres unmarked),7.16%
8,CC1(c2ccc3ccccc3c2)NC(=O)N(CC(N)=O)C1=O (centres unmarked),12.2%
9,CCOc1ccc(C(=O)C2CCN(CC(=O)Nc3ccccc3N3CCOCC3)CC2)cc1,-19.5%
10,CCCn1cc(S(=O)(=O)CC(=O)NC2CCCCC2)c2ccccc21,5.76%
11,CN(C(=O)CSc1nc(C2CC2)nc2ccccc12)c1nc(-c2ccccc2)cs1,3.28%
12,CCN(CCO)c1nc(SC)nc2c1sc1nc(-c3ccco3)c3c(c12)CCC3,9.03%
13,Cc1ccc(NC(=O)c2ccc3c(c2)OCCO3)cc1C,12.3%
14,Cc1cc(C)nc(N2CCCC(C(=O)Nc3nnc(C(C)(C)C)s3)C2)n1 (centres unmarked),12.6%
15,CCOC(=O)CCP(=O)(O)C(O)(c1ccccc1)c1ccccc1,8.79%
16,Cc1nc(N2CCN(C(=O)c3ccco3)CC2)nc2c1C(=O)CCC2,18%
17,CC1CCCN(C(=O)CCNS(=O)(=O)c2ccc(Br)cc2)C1 (centres unmarked),-2.54%
18,CC1CCN(CCCN2C(=O)C3C(C(=O)Nc4ccc(Cl)cc4)C4C=CC3(O4)C2C(=O)NC2CCCCC2)CC1 (centres unmarked),8.73%
19,O=C(NCc1nc2ccccc2[nH]1)C1=C[C@H](c2ccc(C(F)(F)F)cc2)C[C@H](OCc2ccc(CO)cc2)O1,8.44%
20,CCOC(=O)Cc1csc(NC(=O)CSc2nnc(-c3ccc(NS(=O)(=O)CC)cc3)o2)n1,3.36%
21,O=C(NNc1nc(-c2ccccc2)cs1)c1cccs1,14.9%
22,O=C(N/C(=N\O)c1ccccc1)Nc1ccc(Cl)cc1,-8.86%
23,CC1=C(C(=O)N2CCOCC2)C(c2ccc(O)cc2)NC(=S)N1 (centres unmarked),6.33%

row,Structure (SMILES),"hERG current change (%, negative = inhibition) at 1uM"
1,CCOC(=O)C1(CCOc2ccccc2)CCN(Cc2ccc(C#CCCO)cc2)CC1,0.161%
2,CCOC(=O)NNC(=O)c1[nH]c2ccc(Br)cc2c1-c1ccccc1,10.1%
3,O=C(CSc1nnc(Nc2ccccc2)s1)NCC1CCCO1 (centres unmarked),14.7%
4,COC(=O)CCCNC(=O)c1ccc(OS(=O)(=O)c2cc([N+](=O)[O-])ccc2C)cc1,5.57%
5,COc1ccc(/C(C)=N/NC(=O)c2ccc3nc[nH]c3c2)cc1,13.1%
6,CCCCNc1c(-c2cccc(-c3cc(C(C)=O)cs3)c2)nc2cc(C)ccn12.O=C(O)C(F)(F)F,9.48%
7,COc1ccc(C(=O)/C=C/c2cccs2)c(OC(=O)N2CCOCC2)c1,13.4%
8,Cc1cc(C)c2c(c1)/C(=C/C(=O)c1ccc(Br)s1)C(=O)N2,21%
9,CC(C)(C)OC(=O)N[C@@H](Cc1ccccc1)C(=O)N1CCC(C(=O)N[C@@H](Cc2c[nH]c3ccccc23)C(=O)O)CC1,15%
10,CN1CCC(=O)N(CCSc2ccc(Br)cc2)CC1,-0.46%
11,CCC(CC)NC(=O)CCCSc1nc2ccccc2[nH]1,9.36%
12,Cc1cc(OCC(O)CN(CCO)CCO)ccc1Cl.Cl (centres unmarked),7.36%
13,Cc1ccccc1NC(=S)NCC(c1cccnc1)N1CCOCC1 (centres unmarked),11.4%
14,CCOC(=O)c1ccc(CNC(=O)C2CCCCC2C(=O)OCC(F)(F)F)o1 (centres unmarked),7.18%
15,COc1ccccc1C(=O)COC(=O)CNS(=O)(=O)c1ccc(C)cc1,4.92%
16,COC(=O)[C@@H](Cc1c[nH]c2ccccc12)NC(=O)C1CCCN(S(=O)(=O)c2ccc(C)cc2)C1 (some centres unmarked),4.77%
17,Cl.Cn1c(SCc2ccccc2)nnc1C1CCCNC1 (centres unmarked),12.2%
18,CCOC(=O)N1CCN(C(=O)c2cccc(F)c2)CC1,1.87%
19,CCOC(=O)CSc1n[nH]c(NC(=O)c2cccc(C(F)(F)F)c2)n1,-6.41%
20,CC1(C)C2CCC1(CS(=O)(=O)Nc1ccccc1)C(=O)C2 (centres unmarked),5.72%
21,CC(C(=O)Nc1ccc(Cl)cc1Cl)N1CC=C(c2ccccc2)CC1 (centres unmarked),9.25%
22,N#Cc1cnn(-c2ccc(F)cc2)c1N,17.6%
23,CCCCNC(=O)c1cc2cc(CC)ccc2[nH]1,8.01%

row,Structure (SMILES),"hERG current change (%, negative = inhibition) at 1uM"
1,COc1ccc(OC)c2[nH]c(=O)c(CCNC(=O)C(=O)c3c[nH]c4ccccc34)cc12,10.3%
2,O=C(CC(=O)N/N=C\c1ccccc1)NCCc1ccccc1,13.3%
3,O=C(c1ccco1)N(CCO)Cc1cc2cc3c(cc2[nH]c1=O)OCO3,11.6%
4,Cc1cc(C)c(NC(=O)Cn2nnc(C(=O)NCc3cccs3)c2N)c(C)c1,18.4%
5,Cc1ccc(C(=O)O)c(C(=O)Nc2nc3ccccc3s2)c1,5.39%
6,Cc1noc(C)c1S(=O)(=O)N(CCc1ccccc1)Cc1ccccc1,3.11%
7,O=C(OCCN(CCOC(=O)c1ccncc1)S(=O)(=O)c1cccs1)c1ccncc1,-51.5%
8,O=C(NCCc1ccccc1)c1nc2nc(-c3cccs3)cc(C(F)(F)F)n2n1,-27%
9,COc1ccc(/C(O)=C2/C(=O)C(=O)N(CCN3CCOCC3)C2c2ccccn2)cc1 (centres unmarked),3.23%
10,CCCn1c(SCC(=O)NNC(=O)c2ccc(OC)cc2)nnc1C(C)C,16.1%
11,Cc1ccsc1C1CC(=O)OC2=C1C(=O)CC(C)(C)C2 (centres unmarked),8.61%
12,O=C(CCN1C(=O)C2C3C=CC(C4CC34)C2C1=O)Oc1ccc(Br)cc1 (centres unmarked),14.8%
13,CCN(CC)S(=O)(=O)c1ccc(N2CCOCC2)c(NC(=O)CCOc2ccccc2)c1,0.377%
14,COc1ccc(CCNC(=O)C2CCN(S(=O)(=O)N3CCOCC3)CC2)cc1OC,2.83%
15,CC(C)(C)CC(C)(C)NC1=CC(=O)OC12CCCCC2,11%
16,COCCn1c(SCc2nc3ccccc3c(=O)[nH]2)nc2ccccc2c1=O,9.84%
17,CCOC(=O)C1=C(COC(=O)c2ccc(C)s2)NC(=O)NC1C (centres unmarked),2.72%
18,C/C(Cl)=C\Cn1c(Nc2ccccc2)nc2c1c(=O)n(C)c(=O)n2C,4.97%
19,S=C(NCCc1cccc(Cl)c1)NCc1ccccc1,15.8%
20,CSc1ccc(CCCCCCOC(=O)C(C)(C)C)cc1,-1.82%
21,COc1cc(/C=N\NC(=O)C2COc3ccccc3O2)cc(OC)c1O (centres unmarked),9.77%
22,O=C(COc1cccc2c1CCN(Cc1ccccc1F)C2=O)N1CCCCC1,6.27%
23,CCOc1ccccc1NC(=O)N1CCCc2ccccc21,7.1%

row,Structure (SMILES),"hERG current change (%, negative = inhibition) at 1uM"
1,CCOC(=O)CNCCC(=O)c1ccc(Br)cc1,0.301%
2,COC(=O)C1=C(c2cccc(C#N)c2)C[C@@H]2CC[C@H]1N2C(=O)N1CCOCC1,4.18%
3,C=CCn1c(-c2ccc(F)cc2)n[nH]c1=S,2.35%
4,COc1ccccc1OCCOc1ccc(/C=C2\C(=N)N3N=C(S(C)(=O)=O)SC3=NC2=O)cc1,10.8%
5,O=C1CCCN1c1ccc(S(=O)(=O)NCc2ccc(F)cc2)cc1,14.5%
6,O=C(O)CC1C(=O)NCCN1C/C=C/c1ccccc1 (centres unmarked),13.2%
7,O=C(N/N=C/c1cc(Br)ccc1O)c1ccncc1,9.89%
8,CCN(CC)c1ccc(N2C(=NC(=O)C3CC3)SC3CS(=O)(=O)CC32)cc1 (centres unmarked),2.97%
9,C[n+]1ccccc1Nc1cc([N+](=O)[O-])ccc1N.[I-],13%
10,COc1ccc2c(c1)CCCC2NS(=O)(=O)OCC(Cl)(Cl)Cl (centres unmarked),6.61%
11,CN(CC(=O)Nc1ccc(F)c(F)c1F)C(=O)C1CCC1,12.6%
12,CCN(CC)CC(C)OC(=O)c1cc(OC)c(OC)c(OC)c1.Cl (centres unmarked),-7.49%
13,Cc1cc(OC(=O)c2ccccc2Br)cc(=O)n1C,-9.74%
14,Cc1cc(=O)[nH]c(N/N=C/c2cccs2)n1,8.69%
15,CN(C(=O)c1cc2n(n1)C(C(F)(F)F)CC(c1ccco1)N2)c1ccc(OC(F)(F)F)cc1 (centres unmarked),-0.611%
16,CCCCNC(=S)NNC(=O)c1csc(C)c1,0.0052%
17,Cc1cc(C)c(NC(=O)CSc2nc(=O)n(CCN3CCOCC3)c3c2CCC3)c(C)c1,-5.78%
18,Cc1ccc(OCCNC(=O)c2ccco2)cc1C,18.7%
19,CC(C)C(=O)Nc1ccc(C(=O)NNC(=O)CCCOc2ccc(Cl)cc2Cl)cc1,21%
20,CCOC(=O)C1CCN(Cc2ccc(O)c(OC)c2)CC1,-16.4%
